Data as given in PubChem BioAssay AID1346428 (National Center for Advancing Translational Sciences (NCATS), 2018).
Hit rate of the full screen: of about 48,000 compounds, about 1,200 (2.5%) were called active. Another 2% or so got no clear call; they are omitted.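 Rule for the calls: active = activation of at least 60% and not above a set upper limit (about 1 call in 100 departs from these limits); inconclusive = activation of 40% to 60%, or above that upper limit; inactive = activation under 40%.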 The list shows a part of the results.

target: Probable G-protein coupled receptor 32 (Homo sapiens) (UniProt O75388); experiment: qHTS for Agonists of Human Resolvin D1 Receptor DRV1; conditions: CHO-K1 GPR32 beta-arrestin PathHunter luminescence, 90 min; at 76.9 µM; active compounds read high; zero percent set by DMSO-only wells; note: 0% is about no effect
Summary of the method: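 PathHunter enzyme-fragment complementation, CHO-K1 GPR32 stable line; 2,500 cells/well, overnight attach; cpd 90 min 37 °C 5% CO2; detection reagent 1 h RT; chemiluminescence. DMSO = EC0.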

Chain of UniProt O75388 (O75388 whole entry, looked up, the tested form may be a part): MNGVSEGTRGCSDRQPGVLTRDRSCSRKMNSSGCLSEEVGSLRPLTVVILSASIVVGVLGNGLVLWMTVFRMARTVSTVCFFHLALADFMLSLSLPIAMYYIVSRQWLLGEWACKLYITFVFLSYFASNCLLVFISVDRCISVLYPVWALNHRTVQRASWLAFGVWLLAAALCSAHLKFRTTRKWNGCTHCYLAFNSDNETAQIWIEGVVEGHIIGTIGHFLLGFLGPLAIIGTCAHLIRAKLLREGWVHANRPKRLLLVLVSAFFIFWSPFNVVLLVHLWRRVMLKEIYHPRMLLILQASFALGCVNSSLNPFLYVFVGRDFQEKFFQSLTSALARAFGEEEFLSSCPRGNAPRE

SMILES	activation
COc1cc(NC(=O)C2CCCN(S(=O)(=O)c3ccc4c(c3)oc(=O)n4C)C2)c(C(=O)O)cc1OC (configuration not stated)	inactive: 31.3%
CCCCC(Sc1nc2cc3c(cc2c(=O)n1CCCC(=O)NCc1ccc(OC)cc1)OCO3)C(=O)OCC (configuration not stated)	inactive: -25.8%
COc1ccc2c(C)c(CC(=O)NCc3ccc(C)cc3)c(=O)oc2c1OC	inactive: 15.7%
CC(C)OCCCNC(=O)c1cc2c(-c3ccc(Cl)cc3)nn(C)c2s1	inactive: 2.15%
CCc1ccc(NC(=O)C(=O)NCCc2csc(-c3ccc(C(F)(F)F)cc3)n2)cc1	inactive: -13%
O=C(NCc1ccccc1F)c1ccc(CN2CC(=O)N3CCCCC3C2=O)cc1 (configuration not stated)	inactive: -14%
Cc1cc(C)c(NC(=O)Cn2c(=O)n(Cc3ccc4c(c3)OCO4)c(=O)c3ccc(C(=O)NC4CCCCC4)cc32)c(C)c1	inactive: -23.1%
N#C/C(=C\c1ccc(Cl)cc1)c1nc(-c2cc3ccccc3oc2=O)cs1	inactive: -3.34%
COc1cccc(C(=O)N2c3cc(C)ccc3C(C)(c3ccccc3)CC2(C)C)c1 (configuration not stated)	inactive: -23.1%
CCc1ccc(CNC(=O)c2cnc3sc4cc(OC)ccc4n3c2=O)cc1	inactive: 6.03%
CCCn1c2ccccc2c2cnn(CC(=O)N3CCC(C)CC3)c(=O)c21	inactive: -1.49%
CCOC(=O)c1sc2cccc(F)c2c1S(=O)(=O)N1CCN(c2cccc(Cl)c2)CC1	inactive: -16.2%
CCC(=O)N1CCc2cc(S(=O)(=O)NC(C(=O)Nc3ccc(C(C)=O)cc3)C(C)C)ccc21 (configuration not stated)	inactive: -9.31%
Cc1cc(C)c2c(CC(=O)N(Cc3ccccc3)C3CCS(=O)(=O)C3)coc2c1 (configuration not stated)	inactive: -13.8%
Cn1c(=O)oc2cc(S(=O)(=O)Nc3ccc(C(=O)O)cc3)ccc21	inactive: 7.89%
CCC(=O)N1CCc2cc(Br)cc(S(=O)(=O)N3CCCC(C(=O)N(C)c4ccc(Br)cc4)C3)c21 (configuration not stated)	inactive: -4.66%
COc1ccc(NC(=O)c2cccn2-c2nnc(N3CCCCC3)s2)cc1	inactive: -12.5%
COc1ccccc1CNC(=O)c1ccc(-c2nc(CN3CCc4ccccc43)c(C)o2)cc1	inactive: -12.1%
Cc1ccc(OCC(=O)Nc2ccc3nc(SCC(=O)N4CCc5ccccc54)sc3c2)cc1	inactive: -9.47%
CCn1c(=O)c2sccc2n2c(CCC(=O)Nc3cc(C)cc(C)c3)nnc12	inactive: 37%
CCOC(=O)C1CCCN(c2nc3c(S(=O)(=O)c4ccc(C)c(C)c4)nnn3c3ccc(Cl)cc23)C1 (configuration not stated)	inactive: -4.42%
Cc1ccc(Cl)cc1N1CCN(c2ncnc3onc(C)c23)CC1	inactive: -8.21%
COc1ccc2c(c1)CC(C(=O)NCCCN1CCN(c3ccc(F)cc3)CC1)CO2 (configuration not stated)	inactive: -0.185%
COc1cccc(N2CCN(C(=O)C3CCN(S(=O)(=O)c4ccc5c(c4)oc(=O)n5C)CC3)CC2)c1	inactive: 8.6%
Clc1ccc(N2CCN(c3ncnc4c3nc3n4CCCC3)CC2)cc1	inactive: 13.8%
COc1ccc(-c2nc(CS(=O)CC(=O)NCc3ccccc3OC)c(C)o2)cc1 (configuration not stated)	inactive: 2.92%

SMILES	activation
COc1cccc(C(=O)Nc2cc3c(cc2C(=O)c2ccc(C)cc2)OCCO3)c1	inactive: -8.03%
COc1cc(C(=O)Nc2ccc3oc(-c4ccc(C)c(Br)c4)nc3c2)cc(OC)c1OC	inactive: -9.97%
COc1ccc(N2CCN(c3oc(/C=C/c4cc(OC)c(OC)c(OC)c4)nc3C#N)CC2)cc1	inactive: -15.9%
COc1ccc(F)cc1S(=O)(=O)NCCc1sc2nc(-c3ccc(F)cc3)nn2c1C	inactive: -1.48%
CCc1nnc(SCC(=O)Nc2ccc(F)cc2F)c2cc3sc(C)cc3n12	inactive: 0.629%
CCOC(=O)c1ccccc1NC(=O)N(C)CCc1c(C)nn(CC)c1C	inactive: 2.34%
Cc1cc(C)cc(Oc2nc3c(c(=O)n(C)c(=O)n3C)n2Cc2ccc(F)cc2)c1	inactive: -5.92%
Cc1cc(C)c2c(CC(=O)Nc3c(C(=O)Nc4ccc(Cl)cc4)oc4ccccc34)coc2c1	inactive: 6.75%
COc1ccc(CNC(=O)CN2C(=O)c3cccnc3Oc3ccc(C)cc32)cc1	inactive: -10.8%
CCc1cccc(C)c1NC(=O)CSc1nnc(CC)n2c1cc1occc12	inactive: -4.57%
Cc1cc(OCC(=O)N(Cc2sccc2C)C2CCS(=O)(=O)C2)ccc1Cl (configuration not stated)	inactive: -18.6%
COc1ccc(Nc2cc(C(=O)NCc3ccccc3OC)c3ccccc3n2)cc1	inactive: 2.45%
CCCSCCCNC(=O)c1ccc2nc(Cc3ccccc3)oc2c1	inactive: -13%
CCSc1ncc(Cl)c(C(=O)Nc2ccc(S(=O)(=O)N(C)c3ccccc3)cc2)n1	inactive: -6.78%
Cc1cc(Nc2cccc(Cl)c2)nc2ccc(NC(=O)c3cccnc3)cc12	active: 60.5%
O=C(CN1C(=O)COc2ccc(S(=O)(=O)N3CCCCCC3)cc21)NCc1ccc(F)cc1	inactive: -23.3%
Cc1ccc(NC(=O)CSc2nc3n[nH]c(C)c3c(=N)n2-c2cccc(C)c2)cc1	inactive: 4.83%
Cc1ccc(NC(=O)C(=O)NCC2(c3ccccc3)CCCC2)cc1Cl	inactive: -24.7%
CCc1ccc(CNC(=O)CN2CCSc3ccccc32)cc1	inactive: -11.5%
CCOC(=O)N1CCc2c(sc3c2c(=O)n(CCc2ccccc2)c(=O)n3Cc2c(F)cccc2Cl)C1	inactive: -7.88%
O=C(NCCc1ccccc1)c1cnn(-c2ccc(F)cc2)c1-n1cccc1	inactive: 19.1%
CCOc1ccc(NC(=O)c2cnc(N3CCCCC3)c3ccccc23)cc1	inactive: -24.5%
CCCOc1c(Cl)cc(C(=O)N(Cc2cccc(OC)c2)C2CCS(=O)(=O)C2)cc1Cl (configuration not stated)	inactive: -31.4%
CC(C)NC(=O)C1CCC(Cn2c(=O)c3sccc3n(CC(=O)NCc3ccccc3)c2=O)CC1 (configuration not stated)	inactive: 2.75%
COc1ccc(NC(=O)Cn2cnc3c(oc4ccccc43)c2=O)cc1OC	inactive: -0.798%
O=C(NCc1ccc2c(c1)OCO2)c1ccc2c(c1)N(Cc1ccccc1)C(=O)c1ccccc1S2=O (configuration not stated)	inactive: 3.42%
